In article PMC4336329 (PLoS ONE, 2015):
Hit rate of the full screen: of about 310,000 compounds, about 2,200 (0.71%) showed an effect of 50% or more. The effect is printed as a negative number. The list shows a part of the results.

molecular target: human ether-à-go-go-related gene (hERG) potassium channel (human, UniProt Q12809); experiment: primary screen, population patch clamp on CHO cells stably expressing hERG
Sequence (Q12809 whole entry, looked up): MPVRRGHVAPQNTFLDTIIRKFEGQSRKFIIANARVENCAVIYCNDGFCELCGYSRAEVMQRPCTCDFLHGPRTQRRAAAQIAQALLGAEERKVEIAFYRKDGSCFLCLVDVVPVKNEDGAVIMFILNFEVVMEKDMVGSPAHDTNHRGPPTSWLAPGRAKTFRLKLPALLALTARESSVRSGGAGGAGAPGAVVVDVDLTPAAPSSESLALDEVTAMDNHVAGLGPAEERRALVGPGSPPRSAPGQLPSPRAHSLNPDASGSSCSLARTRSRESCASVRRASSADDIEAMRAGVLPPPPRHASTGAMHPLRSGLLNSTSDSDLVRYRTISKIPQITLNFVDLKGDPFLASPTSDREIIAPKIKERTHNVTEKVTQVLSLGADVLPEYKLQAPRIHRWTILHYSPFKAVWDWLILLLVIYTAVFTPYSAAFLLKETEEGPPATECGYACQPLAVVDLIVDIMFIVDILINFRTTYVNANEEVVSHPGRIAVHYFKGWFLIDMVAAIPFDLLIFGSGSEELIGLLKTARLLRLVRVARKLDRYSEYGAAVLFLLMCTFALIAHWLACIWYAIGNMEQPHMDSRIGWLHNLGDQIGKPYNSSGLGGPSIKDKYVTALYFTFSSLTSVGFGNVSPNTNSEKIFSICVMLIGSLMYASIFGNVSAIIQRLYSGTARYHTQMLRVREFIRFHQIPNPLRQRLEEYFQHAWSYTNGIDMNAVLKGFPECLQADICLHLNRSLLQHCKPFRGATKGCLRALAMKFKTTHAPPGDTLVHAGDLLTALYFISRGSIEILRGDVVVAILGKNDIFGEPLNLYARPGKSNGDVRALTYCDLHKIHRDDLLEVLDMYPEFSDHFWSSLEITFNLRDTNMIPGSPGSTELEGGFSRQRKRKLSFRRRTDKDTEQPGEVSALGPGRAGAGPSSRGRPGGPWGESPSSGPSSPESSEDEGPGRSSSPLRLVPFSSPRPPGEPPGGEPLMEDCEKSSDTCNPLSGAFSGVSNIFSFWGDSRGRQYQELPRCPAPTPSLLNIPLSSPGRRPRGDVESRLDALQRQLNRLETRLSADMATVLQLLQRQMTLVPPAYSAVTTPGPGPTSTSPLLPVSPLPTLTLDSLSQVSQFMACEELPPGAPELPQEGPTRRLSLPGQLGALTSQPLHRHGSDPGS

Going from `C/C=C(\C)C(=O)NCCN1C2=NC[C@@H](Cc3ccccc3)N2C[C@H]1Cc1ccc(O)cc1` to `CCN1C(=O)N[C@@H](CCc2ccccc2)C(C(=O)OC)=C1C`, the “hERG current change (%, negative = inhibition) at 1uM” value rises from 13.4% to 17.6%.

Going from `Cc1ccc(S(=O)(=O)N2CCC(C(=O)N3CCN(Cc4ccccc4)CC3)CC2)cc1` to `CCCCOc1ccc(NC(=O)[C@@H]2CCCN2C(=O)C2CCN(S(=O)(=O)c3ccc(C)cc3)CC2)cc1`, the “hERG current change (%, negative = inhibition) at 1uM” value falls from 4.88% to 1.97%.

Going from `CC(=O)C(=Cc1ccc(C(=O)O)cc1)C(C)=O` to `COC(=O)c1ccc(C(=O)NN)cc1`, the “hERG current change (%, negative = inhibition) at 1uM” value falls from 10.8% to 8.93%.

First: COC(=O)[C@H](Cc1ccccc1)NC(=O)NCCC1=CCCCC1
Second: COc1cccc(NC(=O)CC2(CC(=O)O)CCCC2)c1
The “hERG current change (%, negative = inhibition) at 1uM” value of the first is higher: -0.221% for the first, -6.98% for the second.

First: CC1CCN(C(=O)COc2ccc3ccccc3c2Br)CC1
Second: Cc1ccc(OCCn2nc3ccccc3n2)c(C)c1
The “hERG current change (%, negative = inhibition) at 1uM” value of the first is higher: 9.56% for the first, -0.51% for the second.

First: Nc1cc(=O)[nH]c(SCC(=O)NNC(=O)Cc2ccccc2)n1
Second: COC(=O)c1cccc(NC(=O)CSc2nc(O)c(-c3ccccc3)c(=O)[nH]2)c1
The “hERG current change (%, negative = inhibition) at 1uM” value of the first is higher: 19.4% for the first, 8.64% for the second.

Compared with `CCCCOc1ccc2c(c1)/C(=C(\C(Cl)=C(Cl)Cl)[N+](=O)[O-])N2`, `O=c1[nH][nH]c(-c2ccccc2O)c1C(C[N+](=O)[O-])c1cccc(Cl)c1` (centres unmarked) is lower in “hERG current change (%, negative = inhibition) at 1uM” value: 12.9% for the first, 12.6% for the second.

Going from `CCOc1ccc(NC(=O)CNC(=O)c2cccs2)cc1` to `CCOCCCNC(=O)c1cccs1`, the “hERG current change (%, negative = inhibition) at 1uM” value rises from 14.8% to 16.3%.

First: CCCCC1CCC(C(=O)Nc2ccccc2N2CCOCC2)CC1 (centres unmarked)
Second: O=C(O)C1CCC(=O)N(C2CCCCC2)C1c1ccccc1 (centres unmarked)
The “hERG current change (%, negative = inhibition) at 1uM” value of the first is lower: 5.53% for the first, 6.56% for the second.

First: Cc1noc(C)c1CSCC(=O)Nc1cc(S(=O)(=O)N2CCCCC2)ccc1OC(C)C
Second: O=C(CSC(=S)N1CCCC1)Nc1ccc(Br)cc1Cl
The “hERG current change (%, negative = inhibition) at 1uM” value of the first is lower: 13.8% for the first, 18.1% for the second.

Compared with `CCN1CCN(CCCNC(=O)c2ccc(NC(=O)C3=CSCCO3)cc2)CC1`, `CN1CCN(S(=O)(=O)c2cccc(C(=O)Nc3sccc3C(N)=O)c2)CC1` is lower in “hERG current change (%, negative = inhibition) at 1uM” value: 20.2% for the first, -48.2% for the second.

Compared with `COc1ccc(C(=O)c2c(C(F)(F)F)oc3c2C(=O)c2ccccc2C3=O)cc1OC`, `COc1ccc(C(C(=O)NC2CCCCC2)N(C(=O)c2ccco2)c2ccccc2C(C)=O)cc1OC` (centres unmarked) is higher in “hERG current change (%, negative = inhibition) at 1uM” value: 8.78% for the first, 16.2% for the second.

Going from `N#Cc1cnn2ccc(-c3cc(N4CCOCC4)ccc3[N+](=O)[O-])nc12` to `N#CCCn1cc(/C=N/O)c(-c2cccc([N+](=O)[O-])c2)n1`, the “hERG current change (%, negative = inhibition) at 1uM” value falls from 8.76% to 5.99%.

Going from `O=C(Cc1coc2cc3c(cc12)CCC3)OCC(=O)N1CCCC1=O` to `O=C(COC(=O)Cc1ccsc1)NCC1CCCCC1`, the “hERG current change (%, negative = inhibition) at 1uM” value rises from 0.839% to 2.04%.

First: CCOC(=O)[C@H]1[C@H]2COc3ccc(Cl)cc3[C@@H]2N2C(=O)c3cc(OC)ccc3NC(=O)[C@@]12C
Second: COc1cccc(-n2c(=O)[nH]cc(C(=O)Nc3ccc4c(c3)OCCO4)c2=O)c1
The “hERG current change (%, negative = inhibition) at 1uM” value of the first is lower: 1.72% for the first, 9.27% for the second.

Going from `Cc1ccc(Oc2ncccc2C(=O)NC2CCSC2=O)cc1` (centres unmarked) to `CCOc1ccc(-c2csc(C3COc4ccccc4O3)n2)cc1` (centres unmarked), the “hERG current change (%, negative = inhibition) at 1uM” value rises from 9.34% to 15%.

First: O=C1NC2(CCCCC2)N(C(=O)c2ccccc2)C2=C1CCCC2
Second: Cc1c2cnn(CC(=O)N3CCC4(CC3)OCCO4)c(=O)c2c(C)n1Cc1ccccc1Cl
The “hERG current change (%, negative = inhibition) at 1uM” value of the first is higher: 15.3% for the first, 10.2% for the second.

Compared with `CCc1nnc(NS(=O)(=O)c2ccc(N3C(=O)c4ccc(C(=O)O)cc4C3=O)cc2)s1`, `Cc1ccc(N2C(=O)NC(=O)/C(=C\c3cnc(-c4ccccc4)nc3)C2=O)cc1` is higher in “hERG current change (%, negative = inhibition) at 1uM” value: 9.17% for the first, 17.9% for the second.

Going from `Cc1nn(C)c(C)c1NC(=O)c1cc2nc(-c3ccco3)cc(C(F)(F)F)n2n1` to `CCNc1nc2c(c(=O)n(C)c(=O)n2C)n1CCCc1ccccc1`, the “hERG current change (%, negative = inhibition) at 1uM” value falls from 13.7% to 2.25%.

First: Cc1noc(C)c1C(=O)Nc1nccs1
Second: C=CCNC(=O)c1cccn1-c1ccsc1C(=O)OC
The “hERG current change (%, negative = inhibition) at 1uM” value of the first is higher: 10.8% for the first, 1.79% for the second.

Compared with `O=C(CSc1ncnc2c1oc1ccccc12)Nc1cccc(F)c1`, `O=C(N/N=C1\CCCc2ccccc21)c1ccccc1Cl` is higher in “hERG current change (%, negative = inhibition) at 1uM” value: 0.367% for the first, 8.09% for the second.

First: CCOC(=O)c1cnc(SCC(=O)N2CCN(C(=O)c3ccco3)CC2)nc1N
Second: CSc1ccc(/C=C(/NC(=O)c2ccco2)C(=O)N2CCCCCC2)cc1
The “hERG current change (%, negative = inhibition) at 1uM” value of the first is lower: -7.07% for the first, 8.23% for the second.

Going from `COc1ccc2[nH]c(=O)c(CN(CCO)S(=O)(=O)c3ccc4c(c3)OCCO4)cc2c1` to `C/C(CC(=O)Nc1ccc(N(C)C)cc1)=N\NC(=O)c1ccc([N+](=O)[O-])cc1Cl`, the “hERG current change (%, negative = inhibition) at 1uM” value falls from 10.1% to -0.102%.

Compared with `CC(C)N(C1=N/C(=C\c2ccco2)C(=O)N1c1ccccc1)C(C)C`, `CC(c1cccs1)N(C)Cc1nc(CCc2ccccc2)no1` (centres unmarked) is lower in “hERG current change (%, negative = inhibition) at 1uM” value: 14.4% for the first, 4.83% for the second.

First: [O-][n+]1c2c(nn1-c1ccccc1Cl)-c1nonc1CC2
Second: CCCc1cc(C(=O)N2CCCC(Cc3ccccc3C)(C(=O)OCC)C2)no1 (centres unmarked)
The “hERG current change (%, negative = inhibition) at 1uM” value of the first is higher: 8.7% for the first, 1.33% for the second.

First: CC(/C=N/NC(=O)c1cc(C(C)(C)C)[nH]n1)=C\c1ccccc1
Second: COC(=O)C1=CNC=C(C(=O)OC)C1c1ccc(C(=O)OC)cc1
The “hERG current change (%, negative = inhibition) at 1uM” value of the first is higher: 5.47% for the first, -1.03% for the second.

First: CCNC(=S)N1CCC(C(N)=O)CC1
Second: OCC1(CCOc2ccccc2)CCN(Cc2ccccc2OC(F)F)CC1
The “hERG current change (%, negative = inhibition) at 1uM” value of the first is higher: 13.1% for the first, -54.4% for the second.

First: O=C(C1=NN[C@@H]2C(=O)N(c3cccc(C(F)(F)F)c3)C(=O)[C@H]12)C(c1ccccc1)c1ccccc1
Second: CC(C)=NOc1nc(N(C)C)nc(N(C)C)n1
The “hERG current change (%, negative = inhibition) at 1uM” value of the first is higher: 13.2% for the first, 7.45% for the second.
